This note sets out measurements from the supplement of paper PMC10681739.

Whole data set: some 2,700 sequences, median “arbitrary fluorescence units” near 4,100, cut for the highest 2% near 54,000. The list shows a part of the results.

In this assay the target is T1, ETS1 (UniProt P14921).
T1 sequence: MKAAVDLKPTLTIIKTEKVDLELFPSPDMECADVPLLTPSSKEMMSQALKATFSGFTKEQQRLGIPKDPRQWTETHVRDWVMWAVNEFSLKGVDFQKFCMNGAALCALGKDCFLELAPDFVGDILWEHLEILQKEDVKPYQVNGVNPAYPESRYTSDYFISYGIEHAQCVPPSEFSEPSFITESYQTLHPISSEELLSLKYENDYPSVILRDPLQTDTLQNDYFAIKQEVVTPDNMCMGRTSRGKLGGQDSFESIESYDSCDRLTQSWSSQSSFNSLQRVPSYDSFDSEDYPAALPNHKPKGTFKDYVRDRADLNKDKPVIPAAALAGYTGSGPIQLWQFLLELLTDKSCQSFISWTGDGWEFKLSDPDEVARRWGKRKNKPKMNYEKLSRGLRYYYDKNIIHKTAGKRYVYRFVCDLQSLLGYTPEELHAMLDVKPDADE
The assay is described as follows: ETS1 binding intensity (PBM fluorescence) (arbitrary fluorescence units); higher = stronger binding. Particulars: ETS1 concentration 10 nM. The protocol: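 gcPBM on wild-type 36-bp genomic probes with two neighbouring ETS1 sites (4-24 bp apart). Recombinant human ETS1 (10 nM) was detected with anti-ETS1 antibody fluorescence. Values are medians over 3 replicate spots. The probes sit in constant array flanks that are not printed.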
The sequence CTCCCGGAAACAATTTTTCCCTAGACCCGGAAGCAG registered an ETS1 binding intensity of 3510.

GCCCACATCCGGCCCCTCCTTGCCCCGGAACCTCCT gave an ETS1 binding intensity of 70100.

In turn, ACCTGCCACTTCCTCCTTCAGTCAGGATATGACTTC yielded an ETS1 binding intensity of 17700.

CCGGCCACTTCCGACGCAAGAACCGGAAGCCATGGC: the ETS1 binding intensity came to 17000.

For GCCGCCGGGTGTCGGAAGCGGATGTATGTGACCGCC, the ETS1 binding intensity is 2720.

As to GCGACGGAAGTGACGTCAGACACAGCGCTTCCGGCG, the ETS1 binding intensity amounted to 16700.

Consider CCGGCTTGGTTTCCTCGCTTTAGGAAACTCTCTTGG, for which the ETS1 binding intensity worked out at 245.

Take GCCCCACTTCCCTCCCGCGGTCACACTTCCGGCGGC: the ETS1 binding intensity worked out at 12500.

Regarding TGCGCCCCGTGCTTCCTGCCATCCTGTGCTCTCTGC, the ETS1 binding intensity turned out to be 9740.

The sequence CTTTTTTTTTCTTCCTGAGACAGGAAGTCCCAGGCT had an ETS1 binding intensity of 3330.

For GGGCTGACCCAACTTCCTCCGGAAGGGGCGCTCTGC, the ETS1 binding intensity was 4080.

The sequence ACACAGGATGGTGACTGCTGTCTCATACATCCTGCT displayed an ETS1 binding intensity of 605.

CAACAGGAAGTCGGCACCACTACACCACTTCCGCTT had an ETS1 binding intensity of 18600.

Sequence AGCCGTGGTTCCGGGTCTGCAATGTTCCGGCGTGGG registered an ETS1 binding intensity of 1010.

TACACCCGGAAGTGTCTTCAGGGAGAGGAAGCCGGC showed an ETS1 binding intensity of 12800.

In turn, CCACAGGAAGTAAAAAATGCCATTTTACTTCCTCTG displayed an ETS1 binding intensity of 5330.

GGCTGTTGGCAGGAAGCCTCACTTCCTTGCCACATG: the ETS1 binding intensity was 2790.

In turn, TGGTAGCCAGGAAGTGGAGCAACAGGAACTCTCATT gave an ETS1 binding intensity of 4270.

Take CTGGGTTCCGGTGTTGACGGGCACCACTTCCCTTTT: the ETS1 binding intensity is 13600.

Regarding GAGAATGCAAGGAAGTGACTATTTCCTCCTGCCTGT, the ETS1 binding intensity stood at 2280.

The sequence AGGCTGCATCCTGACCTTAGCCTCCATCCGCAGCAG came in with an ETS1 binding intensity of 3090.

The sequence TGCCACCACACCAGGATGCTTCCGTCTTTGAAGGCA had an ETS1 binding intensity of 1030.

In turn, GCCTGGGAACATGCTTCCTTTCCTGCTCCCGCTGGC registered an ETS1 binding intensity of 1240.

CGGCGGCTGCCGGAAAGCCACTTCCGGCCTGCTCCA had an ETS1 binding intensity of 25400.

The sequence ACGACGCAGCCACTTCCGATTCCGGTCGGAGCACCG displayed an ETS1 binding intensity of 8910.

The sequence GTCCGGGAAATGAGCATTGCTGCCACCAGGAAACTG gave an ETS1 binding intensity of 383.

Consider AACAGCAGGATGTTAAACACTTTAACATCCTGTTAG, for which the ETS1 binding intensity turned out to be 6640.

CCTGGCCGGAAACTGAGCCGTTCACTTCCGCCACCA had an ETS1 binding intensity of 14000.

In turn, TGAAAGTTTCCTGTTTTGCAAACTCCGGATATAAGC yielded an ETS1 binding intensity of 23100.

In turn, ACGTGGAGGAAATGCTCACGGCTTCGGATGCTATGA returned an ETS1 binding intensity of 569.

Turning to TGTGCCGTTTTCCGTCCGCGACTCTTCCGGCCCAGA, the ETS1 binding intensity turned out to be 3470.

On to GGCCGCTTCCGAGCGCCGCCAACCGCTTCCGGGTTC, for which the ETS1 binding intensity amounted to 5250.

As to CGCAATCTGCTTCCGGGAGTGACGGAAACTGCTAGC, the ETS1 binding intensity was 10700.

GGTGTTCCGGACCCGCGCGGTGCGGGGAGGAAGGCC yielded an ETS1 binding intensity of 1700.

Sequence TAGTTGTCCCTTCCTTAAGCACTTCCTGTTTGATCT displayed an ETS1 binding intensity of 11900.

Sequence GCACAGGATGTATGTAGAATGTGATTACTTCCTCTC came in with an ETS1 binding intensity of 4010.

On to TTATTCTGTTTCCGGCAGTTTTACTTCCGTTTGTTT, for which the ETS1 binding intensity was determined as 15900.

TCTTAAGGAAGTTGAAGGCAAATCAACTTCCTGGTA had an ETS1 binding intensity of 2210.

GTGTAATCCCAGCTTCCGGTTTCCTCACGTATACAG had an ETS1 binding intensity of 41400.

Take CGTCACTTCCGTTGCTTAGGAGCACTGGGAAGTGTA: the ETS1 binding intensity amounted to 37800.

GCCTTCAAAGCTTCCTGCCAACTTCCTCTAGACAAC: the ETS1 binding intensity was determined as 15000.

With GCCGCCGCGTACTTCCGGCCGGAAGAAAGGGCGGGC, the ETS1 binding intensity is 65400.

CCCCAACAGGAAGTGAAAGCCCACATCCGTTGTCTT had an ETS1 binding intensity of 22500.

With AAAAGGAGGCTTCCTGGTTTAAAGGAAGTTGCTCTG, the ETS1 binding intensity was found to be 4680.

For the sequence TGGTCCCCGTTTAGGAAACGGAAAAAGGGGCGTGCA, the ETS1 binding intensity came out at 175.

GGATAACGGGCCCGGAAGCCGGAAGTTCAAAGCCGG: the ETS1 binding intensity came to 10800.

Take GCTGCTGGACAGGAAACAGGCAGGAAACGCGCGGCC: the ETS1 binding intensity is 7430.

With CCGCCGGAAACCTCGGTCCTCACGGTGCTTCCCGGT, the ETS1 binding intensity was 2650.

Sequence CATCGGGCACTTCCTTCGAGCCGGAATCGAACCAGC gave an ETS1 binding intensity of 4100.

For TACTGGTGTGTACAGGAAGGAAGTTCACTTTGACTA, the ETS1 binding intensity turned out to be 603.

Take GTGCGTGGGCCTTCCGGGCCCGGAAGAAACTGCGTT: the ETS1 binding intensity is 2560.

Sequence AGGGGGCAGGATGCTGGTGGGCACAGGATGTTGGTG gave an ETS1 binding intensity of 2440.

TGTCCCTTACAAGGATGCTCATCCTGCACTGCTCAC registered an ETS1 binding intensity of 330.

Take GAGGGACTAAGGAAGTTGAGACAGGAAAAGAGCCAT: the ETS1 binding intensity is 875.

GTCACCCTTTCCTGCCGCCTCCCCGGATGAACTGCA came in with an ETS1 binding intensity of 5070.

The sequence TCCATTTTATCCTGTCTGGACCACATCCTGTTTTGG came in with an ETS1 binding intensity of 5840.

Consider GGGGCCGATGCACTTCCGGCTTCCTCCTCCTCTGCC, for which the ETS1 binding intensity is 44900.

Regarding TAACCATTTCCGGGTGAAGAGTGAGTTTCCGGTGTC, the ETS1 binding intensity worked out at 31100.

The sequence ACAACTTCCGGCTGTAAAGATGGCGGCTTCCTAGTG displayed an ETS1 binding intensity of 96400.

Turning to GCAGGGCTTCCTGTGGTGTCTTCATTTCCCGAGCCG, the ETS1 binding intensity stood at 18400.

In the case of CAAGACCGGAAGCGGAAATGGAATCGAGATAGCCTC, the ETS1 binding intensity came out at 38200.

The sequence ATCCTCCACTTCCTAGGGTACCAGGAAATCTCCCCT returned an ETS1 binding intensity of 1650.

GGCTTGTGACTGCCGGATTTCCCCCACTTCCCTGAA: the ETS1 binding intensity is 330.
